Experimental data published in PubChem BioAssay AID1159614 (National Center for Advancing Translational Sciences (NCATS), 2016).
About 65 (0.1%) of roughly 45,000 compounds were called active. The call rests on the fitted dose curve; in most records, active means well fitted activation curve with a large enough effect; inconclusive means small, poorly fitted or top-dose-only effect; inactive means no such curve, though single readings can be large or run the other way. Some of the results follow.

target: Galactocerebrosidase (Homo sapiens) (UniProt P54803); assay: A Novel Cell-Based Assay to Identify Small Molecules for B -Galactocerebrosidase; details: 145M-Twi-hGALC-G270D cells (Twitcher mouse brain line with human GALC G270D), HMU-beta-Gal fluorescence, 48 h; series mostly up to 57.5 µM; activation: at the top concentration; further: 0% is about no effect; nearly all actives have a fitted effect of over 65% in size
Method in brief: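 Brain-derived Twitcher mouse 145M-Twi cells stably expressing human GALC-G270D or wild-type GALC, treated live, then residual GALC activity read by fluorescence of HMU-b-Gal substrate (0.1 mM final) in citrate-phosphate buffer pH 5.2 with sodium taurocholate. Signal increase indicates enhancement.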

UniProt P54803, sequence (P54803 whole entry, looked up): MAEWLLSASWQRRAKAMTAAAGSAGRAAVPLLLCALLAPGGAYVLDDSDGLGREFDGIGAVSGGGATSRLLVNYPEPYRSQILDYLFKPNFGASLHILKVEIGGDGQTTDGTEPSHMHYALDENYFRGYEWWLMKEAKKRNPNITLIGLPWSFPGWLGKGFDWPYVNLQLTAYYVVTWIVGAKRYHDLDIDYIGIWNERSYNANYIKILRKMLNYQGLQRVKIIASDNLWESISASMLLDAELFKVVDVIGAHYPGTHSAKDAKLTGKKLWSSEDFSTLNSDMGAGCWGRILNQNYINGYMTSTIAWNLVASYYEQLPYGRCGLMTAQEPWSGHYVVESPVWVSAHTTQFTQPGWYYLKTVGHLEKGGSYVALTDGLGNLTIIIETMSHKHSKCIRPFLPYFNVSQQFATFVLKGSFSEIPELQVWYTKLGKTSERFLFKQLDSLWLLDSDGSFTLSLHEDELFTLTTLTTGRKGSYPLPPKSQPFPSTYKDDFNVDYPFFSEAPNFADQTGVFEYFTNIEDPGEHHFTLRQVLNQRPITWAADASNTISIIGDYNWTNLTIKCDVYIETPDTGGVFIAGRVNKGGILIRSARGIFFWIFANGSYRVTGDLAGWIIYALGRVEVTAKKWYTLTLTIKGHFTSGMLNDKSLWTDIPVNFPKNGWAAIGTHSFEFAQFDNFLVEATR

activation, inactive:
Cc1ccc(CNC(=O)CSc2nc(=O)[nH]c3c2CCCC3)cc1 -14.9%
CN(C)CCCN(C(=O)c1cccs1)c1nc2ccc(F)cc2s1 -11.8%
N#Cc1nc(-c2ccc(COc3ccccc3)o2)oc1NCc1ccccc1 -5.73%
Cc1cccc(OC(=O)c2cc(-c3ccc4c(c3)OCCO4)on2)c1 -9%
Cc1ccc(NS(=O)(=O)c2ccc3c(c2)NC(=O)CCS3)cc1C -5.34%
CC(C)(C)OC(=O)N1CCC(c2c(C(=O)N3CCN(c4ncccn4)CC3)cnn2-c2ccccc2)CC1 -1.12%
Cc1ccccc1-n1c(/C=C/c2c(C)n(C)c3ccccc23)nc2ccccc2c1=O 15.6%
CNC(=O)C1CCC(Cn2c(=O)[nH]c3ccsc3c2=O)CC1 (stereo not drawn) -18.6%
CCOC(=O)c1ccc(N2C(=O)c3n[nH]c(C)c3C2c2ccc(C(C)(C)C)cc2)cc1 (stereo not drawn) -12.9%
CCOC(=O)CNC(=O)N1CCc2cc(S(=O)(=O)N3CCC(C)CC3)ccc21 -2.18%
CCN(CC)S(=O)(=O)c1ccc(C(=O)Nc2nc3c(Cl)cc(Cl)cc3s2)cc1 -17.6%
CCOC(=O)c1ccc(NC(=O)COCc2cc(-c3ccc4c(c3)OCO4)on2)cc1 -15.3%
CSc1ccc(CNc2ncc(-c3ccccc3)n2C)cc1 -7.45%
CCOC(=O)c1cccc(NC(=O)c2cc(CN3CCOCC3)on2)c1 -15.5%
CC(=O)N1CCCc2cc(S(=O)(=O)N(C)CC(=O)Nc3ccc(C)cc3C)ccc21 -12.4%
COc1ccc(CCN(C)CCCC(C#N)(c2ccc(OC)c(OC)c2)C(C)C)cc1OC (stereo not drawn) -20.6%
Cc1noc(Cn2c(=O)c3ccccc3n(CC(=O)Nc3cccc(Cl)c3C)c2=O)n1 -5.8%
CC(C)c1ccc(OCC(=O)Nc2c(Cl)ccc3nsnc23)cc1 -9.29%
N#Cc1nc(/C=C/c2ccc(F)cc2)oc1N1CCN(c2ccccc2)CC1 -13%
CCCn1c2ccccc2c2cnn(CC(=O)N3CCC(C(=O)OCC)CC3)c(=O)c21 -15.6%
Cc1ccc(CNc2nc3ccccc3n3c(C)nnc23)cc1 -19.2%
Cc1cccc(-c2noc(-c3cccnc3NCc3ccco3)n2)c1 0.546%
COc1cccc(C2c3c(oc4ccc(C)cc4c3=O)C(=O)N2CCCN2CCOCC2)c1OC (stereo not drawn) -41.4%
O=C(Nc1cccc(NC(=O)c2ccc(Br)o2)c1)c1ccccc1 -6.77%
COc1ccc(-n2c(=O)c3c4c(sc3n(Cc3cc(C)ccc3C)c2=O)CN(C(C)=O)CC4)c(OC)c1 -33.9%
Cc1ccccc1-n1cc(-c2ccccc2)nc1SCC(=O)Nc1ccc(F)cc1 -1.95%
Cc1onc(-c2ccccc2)c1-c1ccc(S(N)(=O)=O)cc1 -5.7%
Cc1ccc(Sc2c(C)nn(C(=O)COc3ccc(F)cc3)c2C)cc1 -15.2%
